# Measurements taken from patent publication US8273715B2, “Methods of treating fragile X syndrome” (Seaside Therapeutics, Inc., priority 2006, dated 2012).
# Legend:
# 76 molecular targets = details: 10 μM racemic baclofen, in duplicate; cited from earlier work
# Fmr1 KO mice [1] = experiment: Marble burying assay, baclofen; details: for dose-related alteration in marble burying behavior: i.p. one hour before testing, all doses
# [2] = test system: subjects with fragile X syndrome; experiment: Example 5: racemic baclofen in five male subjects with fragile X syndrome, clinician rating; type: in vivo, human; details: of 5 male subjects; excessive sleepiness, increased irritability, screaming and swearing
# Protocol: These subjects had serious behavioral problems that were incompletely controlled with typical psychoactive medications. […] Doses were titrated from about 2.5 mg BID to a maximum of about 20 mg TID, with a maximum duration of about 4 months. […] Subjects were considered “Improved” if the clinician rating was either “much better” or “better”; considered “Not Improved” if the rating was “slightly worse”, “no change” or “slightly better”; and considered “Worsened” if rated “worse” or “much worse”. […] Other areas of improvement included increased class participation and decreased hyperactivity.
# Fmr1 KO mice [3] = experiment: Open field testing, baclofen; type: in vivo, mouse; details: 30 min test
# Protocol: Mice were injected (i.p.) with a dose of R(+)- or S(−)-baclofen one hour before testing. Each mouse was injected with a dose of R or S before testing. The order of treatment (e.g. R followed by S, or S followed by R) was balanced, and the dose was randomly assigned for each drug. There were at least 3 days between tests. Mice used for this experiment had been previously tested approximately one week earlier on the marble-burying test following treatment with R(+)- and S(−)-baclofen.
# Mice were placed into the center of a clear Plexiglas (40 cm×40 cm×30 cm) open-field arena and allowed to explore for 30 minutes. Bright, overhead lighting provided approximately 800 lux of illumination inside the arenas. White noise was present at approximately 55 dB inside the arenas. Total distance traveled data during the 30 minute test were collected in two-min intervals by a computer-operated Digiscan optical animal activity system (Accuscan Electronics), but the data for the full 30-min test were analyzed.
# The N for the WT littermate controls were: R(+)-baclofen vehicle-treatment N=14; S(−)-baclofen vehicle-treatment N=16.
# Open-field activity data were analyzed using a two-step process. First, the data from vehicle-treated WT and Fmr1 KO littermates were analyzed using a one-way ANOVA. […] Statistical analyses were analyzed using SPSS 11.0
# Fmr1 KO mice [4] = experiment: Audiogenic seizure assay, baclofen; details: 3 mg/kg i.p.; for percentage of Fmr1 KO mice that displayed audiogenic seizures: vehicle about 70%
# Fmr1 KO mice [5] = experiment: Marble burying assay, dicyclomine; type: in vivo, mouse; details: about 60 minutes before the test
# Protocol: Fmr1 KO mice were bred on a C57BL/6J genetic background. Only male Fmr1 KO (Fmr1−/y) mice were tested in this study. A standard mouse cage was filled with 10 cm of corn-cob bedding. Small (1.5-2 cm) black marbles were placed equidistant on top of the bedding. A mouse was placed in this cage and allowed to explore and bury the marbles. After about 20 minutes the mouse was removed and the number of marbles buried (a marble was considered ‘buried’ if more than about 50% of the marble under the bedding) was recorded. Mice were treated with dicyclomine about 60 minutes before the test.
# Fmr1 knockout mice = experiment: Audiogenic seizure assay, dicyclomine; type: in vivo, mouse; details: 40 mg/kg i.p. about 60 minutes prior to the assay
# Protocol: FIG. 7 depicts audiogenic seizures in young Fmr1 KO mice with or without dicyclomine (diccyc.) treatment.
# The methods employed are described above. Briefly, Fmr1 knockout mice were treated i.p. with either vehicle or dicyclomine about 60 minutes prior to the assay. Mice were exposed to a high intensity sound and then observed for occurrence of seizures. The primary endpoint was frequency of status epilepticus, a sustained tonic seizure most often resulting in respiratory arrest and death.
# [6] = 50 mg/kg i.p. 1 hr before testing
structure (smiles),measurement,setting,value
"NCC(CC(=O)O)c1ccc(Cl)cc1 (racemic) [baclofen, β-(Aminomethyl)-4-chlorobenzenepropanoic acid]",binding to the other 75 molecular targets,76 molecular targets,less than 50%
same,marble burying behavior,"Fmr1 KO mice [1]; 6 mg/kg, 12 mg/kg, fragile X knockout mice",reduced marble burying behavior in a dose dependent manner
same,number of subjects that worsened,[2],One subject
NC[C@@H](CC(=O)O)c1ccc(Cl)cc1 [S-baclofen],marbles buried versus 0.0 mg/kg treated mice,Fmr1 KO mice [1]; 1.0 mg/kg i.p. one hour before testing,significantly (p<0.05) more
same,"marbles buried versus mice receiving 0, 0.3, 1, 6 or 30 mg/kg",Fmr1 KO mice [1]; 50 mg/kg i.p. one hour before testing,significantly less
same,dose-related alteration in marble burying behavior,Fmr1 KO mice [1],significant (p<0.005) dose-related alteration
same,open-field activity (total distance traveled) versus vehicle-treated Fmr1 KO mice,Fmr1 KO mice [3]; [6],significantly less active
same,induction of audiogenic seizures,Fmr1 KO mice [4],no more effective than vehicle
CCN(CC)CCOC(=O)C1(C2CCCCC2)CCCCC1 [dicyclomine],marble burying behavior,Fmr1 KO mice [5],reduced marble burying behavior in a dose dependent manner
same,induction of audiogenic seizures,Fmr1 knockout mice,significantly prevented induction of audiogenic seizures
NC[C@H](CC(=O)O)c1ccc(Cl)cc1 [R-baclofen],"marbles buried versus mice that received 0, 0.3, 1, 3 or 6 mg/kg",Fmr1 KO mice [1]; 10 mg/kg i.p. one hour before testing,significantly less
same,dose-related alteration in marble burying behavior,Fmr1 KO mice [1],significant (p<0.005) dose-related alteration
same,open-field activity (total distance traveled) versus vehicle-treated Fmr1 KO mice,Fmr1 KO mice [3]; 6 mg/kg i.p. 1 hr before testing,significantly less active
same,open-field activity (total distance traveled) versus vehicle-treated Fmr1 KO mice,"Fmr1 KO mice [3]; 6 mg/kg i.p. 1 hr before testing, listed as R(+)-baclofen",less active
same,open-field activity (total distance traveled) versus vehicle-treated Fmr1 KO mice,Fmr1 KO mice [3]; [6],less active
same,induction of audiogenic seizures,Fmr1 KO mice [4],significantly prevented induction of audiogenic seizures
same,percentage of Fmr1 KO mice that displayed audiogenic seizures,Fmr1 KO mice [4]; listed as R(+)-baclofen,about 33%
same,percentage of Fmr1 KO mice that displayed audiogenic seizures,Fmr1 KO mice [4]; listed as R(+)baclofen,33%
